# Results: the supplement of paper PMC3334620
# Over roughly 33,000 sequences, “E-score (-0.5 to 0.5)” has its median near -0.056; the highest 2% begin near 0.38. This is one part of the list.
# Target: Stb4 (UniProt P50104)
# Assay: PBM E-score (8-mer binding enrichment) (E-score (-0.5 to 0.5)); higher = stronger / more preferred TF binding; most listed sequences are background and not binding sites
# Details: protein concentration: 200 nM; construct: GST-DNA-binding domain
# Outline: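 Detection of bound protein used fluorescent anti-GST, with scans normalised by masliner. The proteins were GST-tagged yeast transcription factors applied at about 100-200 nM to universal all-10-mer Agilent arrays made double-stranded by primer extension. Each ungapped eight-base word, pooled with its reverse complement, was scored with an E-score from the Universal PBM Analysis Suite.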
row,Sequence,PBM E-score
1,AACACCTG,-0.0332
2,CATACTGG,0.0369
3,GTTCTGTA,-0.0957
4,ATACGAGC,-0.141
5,AGAACATA,0.155
6,ACTTCAGG,-0.0807
7,CTGGAACC,-0.0418
8,AGTCAGAT,-0.234
9,AACCAGCT,-0.28
10,CTTAACGC,-0.14
11,ACCCCAGG,-0.259
12,CGTTGACC,-0.197
13,CAGCTGGC,-0.077
14,CCAATGGA,-0.0293
15,GAAGCATC,0.0283
16,ACGACGAC,-0.129
17,CAGTGCGC,-0.0842
18,ATGTGTAA,-0.0992
19,GCTCGTCC,-0.166
20,GAACATCA,-0.0493
21,AGGCTATG,-0.214
22,GAGTTAAC,-0.0115
23,CCAGGCGC,-0.216
24,CGTGATTA,-0.0286
25,ATGAGCAC,-0.0845

row,Sequence,PBM E-score
1,ACGTGAAG,-0.167
2,CAGCGAGA,-0.0318
3,CCACGTAC,-0.216
4,AGCTATAA,-0.175
5,CGGGGAAG,0.201
6,GATCCAGC,-0.0148
7,ATTCTGGC,-0.0557
8,AAAGAAAC,0.0504
9,AAAAATCC,0.123
10,TCAGTGAA,-0.0806
11,ACCTGGCG,-0.128
12,ATCCACCC,0.0797
13,CCATGATC,-0.0827
14,CAACTGCC,0.0201
15,GGCCTAAC,0.0628
16,GCTAGGGA,-0.164
17,AGATATAA,0.018
18,ATCGTTCA,-0.122
19,CTTTTTCA,-0.146
20,CCAAGACC,-0.0661
21,CTAAAGAC,-0.251
22,CCCTAAGA,-0.177
23,ACTGATTG,-0.188
24,AACCTATT,0.0723
25,AGGGAACG,0.0299

row,Sequence,PBM E-score
1,GAGTAAAC,0.137
2,GTTAGAAC,0.0221
3,AGCTCGGG,0.443
4,ATTACGTA,0.0546
5,GCGATGTA,-0.0672
6,AATCAGTA,-0.0762
7,AGTCTGTG,-0.229
8,ACCTCTGC,-0.229
9,GGACGTGA,-0.0585
10,AGTACCAG,0.0913
11,AATGCTTC,0.11
12,CGTTTGGA,-0.144
13,CTTTGGCC,0.0279
14,TAACCGGA,0.355
15,CACTACAC,-0.153
16,AAGCTGCG,-0.102
17,CGGGCATA,0.19
18,AATGAGAC,-0.15
19,TCAACCAA,-0.0982
20,GTGGTTCA,-0.0282
21,ACCTTGAT,-0.0747
22,TGATGTAA,-0.174
23,GCGAACAA,-0.0836
24,CCGGGGTA,0.155
25,CCAGGGGG,-0.248

row,Sequence,PBM E-score
1,ACTGGCCC,0.0389
2,AATGTGGG,-0.127
3,AAGAGACA,0.0356
4,ACCGCCCA,0.0163
5,AACAGGGC,-0.145
6,GCGTCTCA,-0.163
7,AACCAAAG,-0.287
8,CCACGGCC,-0.0994
9,CTCAAATC,-0.119
10,CAAACCTA,-0.198
11,AGCATTCC,0.135
12,CAACATAG,-0.207
13,CTTTTTTA,-0.00601
14,TTACCGAA,0.424
15,ACCTACTA,-0.13
16,ACTGTGAG,-0.00286
17,CTATCACA,-0.0922
18,GCTTACCA,-0.058
19,TGATATCA,-0.281
20,ATAGGATC,-0.0358
21,ATTATGCG,0.146
22,AGCTATGC,-0.395
23,CAATGGCA,-0.0166
24,CATCTGAC,-0.159
25,CTACTTAC,-0.0829

row,Sequence,PBM E-score
1,AACTATCC,0.216
2,AATTCTGT,0.0256
3,AACAATTA,0.122
4,GGTGGGAC,-0.0489
5,GCCGAACC,0.395
6,AATCCGCG,0.127
7,CGATCGAA,-0.0746
8,ATGGCGCA,0.0376
9,ACTATTTA,0.0934
10,AGCCGGGG,0.2
11,CACATAGC,-0.125
12,GAGTAGTA,-0.103
13,CCAGTACC,-0.0527
14,CCTACCCG,0.358
15,GCGTTTCA,-0.0555
16,ACTGAAAG,0.00649
17,GGTGTCCA,-0.0527
18,CCAGCGTA,-0.12
19,CCCTTGGA,-0.11
20,ATTACACC,0.0272
21,CTACGCAC,-0.122
22,CGTTACAC,0.039
23,GAAGCTTC,0.216
24,GGTTAGCA,0.00469
25,CCGAGGTA,0.401

row,Sequence,PBM E-score
1,GGCATCCA,-0.146
2,GAATTCAA,0.169
3,AAAAATGC,0.147
4,CAAAGTCA,-0.161
5,AGATGCAC,-0.146
6,CTATTCGA,-0.224
7,CTTGCCGC,0.18
8,CAGCACTA,-0.239
9,GCTCCGAA,0.4
10,AGTATTCC,0.262
11,ACACTGAT,-0.258
12,GTGTTTGA,-0.163
13,GGAGCCGA,0.379
14,CCCAGTTC,0.0962
15,AAGTATTG,-0.115
16,TATTTGCA,-0.276
17,TGTCCACA,-0.239
18,GAACGGAC,0.0592
19,AAGCATTG,-0.204
20,GTGGAGCA,0.0216
21,AAGGGTAC,-0.159
22,AACAAGTG,-0.0943
23,AGGAGATC,-0.082
24,AGCCTTAA,0.0282
25,AATCTTCA,0.0951

row,Sequence,PBM E-score
1,AGGAAGCC,0.0867
2,CGACCCAC,0.0879
3,AGCTTCCC,-0.00142
4,AACCACTT,-0.0917
5,TGCTACAA,-0.0485
6,CCCCTCAG,-0.0721
7,AACCTGGA,-0.142
8,CATACAAC,-0.0987
9,CCGGATTC,0.294
10,CTCCTACA,-0.143
11,CCTTCGCC,0.0378
12,ATGCTCAC,-0.062
13,ACATCTCC,0.235
14,ATTCGCGG,0.139
15,AAGTCTAA,-0.168
16,TGTAGAAA,-0.177
17,CGGGTCGC,0.24
18,TAGGTAAA,0.00148
19,TCTCATAA,-0.205
20,CAATTTAG,-0.0721
21,AGGGGAGC,-0.0873
22,CACCGGAG,0.125
23,ACAAACCC,0.0864
24,AACAATAT,0.153
25,GGACGGCC,-0.028

row,Sequence,PBM E-score
1,CTAATTAA,-0.0322
2,CTTAATGC,0.0531
3,AAACGGTG,-0.188
4,AAACAATT,0.0396
5,TACGCCCA,-0.132
6,CGGTATAG,0.202
7,CATCCTTC,0.0191
8,AGTACACG,-0.116
9,GACGCGTA,-0.104
10,GCTGATTA,0.0553
11,AGAAACGG,0.139
12,CATACTAC,0.0396
13,GGTAACAA,0.0578
14,CAGCTCGA,-0.144
15,AAGTTGTC,-0.00572
16,AGTCGCCG,0.154
17,AAAATTCT,-0.0472
18,GAAATCAC,0.0158
19,CGGGGATC,0.279
20,CTGTTCCC,0.0707
21,AATCATAA,-0.089
22,TAAGTGCA,0.00861
23,ATGTGGTC,-0.203
24,AGACACTA,0.00615
25,ACCCAAAT,-0.181

row,Sequence,PBM E-score
1,GATAGGGA,-0.0934
2,CCGCTACC,0.142
3,ATTCCAAG,-0.162
4,GGATGCTA,0.27
5,ATGTCCCA,-0.0826
6,TACCTGCA,-0.0176
7,ACCCCGCT,0.0384
8,CACTCGGA,0.422
9,GATAGATC,0.0728
10,CCAGTTGA,-0.155
11,GAGAAAGC,-0.0839
12,ACTCCTGA,-0.0483
13,AACCACGT,-0.236
14,ACCACATA,0.0381
15,CATACGTA,-0.102
16,GTGATCTA,-0.0262
17,ACGCATCG,-0.0318
18,GAACGTAC,-0.0571
19,CTCTTTAA,-0.175
